Results from PubChem BioAssay AID488969 (Vanderbilt High Throughput Screening Facility, 2010).
Over roughly 110,000 compounds, “z-score” has its median near -0.1; the highest 2% begin near 2. Some of the results follow. The source made the active and inactive calls.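 Rule for the calls: active = z-score in the third read window above 3 or below -3; inactive = the rest.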

target: Metabotropic glutamate receptor 8 (Rattus norvegicus) (UniProt P70579); assay: rat mGluR8 modulators via GIRK flux, primary screen, cell-based, thallium flux, HTS (AID 488969); details: HEK293 rat mGluR8, GIRK (G protein-gated inwardly rectifying potassium channel) thallium flux, FluoZin2; at 10 µM; stronger effect = higher value; submaximal glutamate (EC20) added with thallium
Sequence of UniProt P70579 (P70579 whole entry, looked up): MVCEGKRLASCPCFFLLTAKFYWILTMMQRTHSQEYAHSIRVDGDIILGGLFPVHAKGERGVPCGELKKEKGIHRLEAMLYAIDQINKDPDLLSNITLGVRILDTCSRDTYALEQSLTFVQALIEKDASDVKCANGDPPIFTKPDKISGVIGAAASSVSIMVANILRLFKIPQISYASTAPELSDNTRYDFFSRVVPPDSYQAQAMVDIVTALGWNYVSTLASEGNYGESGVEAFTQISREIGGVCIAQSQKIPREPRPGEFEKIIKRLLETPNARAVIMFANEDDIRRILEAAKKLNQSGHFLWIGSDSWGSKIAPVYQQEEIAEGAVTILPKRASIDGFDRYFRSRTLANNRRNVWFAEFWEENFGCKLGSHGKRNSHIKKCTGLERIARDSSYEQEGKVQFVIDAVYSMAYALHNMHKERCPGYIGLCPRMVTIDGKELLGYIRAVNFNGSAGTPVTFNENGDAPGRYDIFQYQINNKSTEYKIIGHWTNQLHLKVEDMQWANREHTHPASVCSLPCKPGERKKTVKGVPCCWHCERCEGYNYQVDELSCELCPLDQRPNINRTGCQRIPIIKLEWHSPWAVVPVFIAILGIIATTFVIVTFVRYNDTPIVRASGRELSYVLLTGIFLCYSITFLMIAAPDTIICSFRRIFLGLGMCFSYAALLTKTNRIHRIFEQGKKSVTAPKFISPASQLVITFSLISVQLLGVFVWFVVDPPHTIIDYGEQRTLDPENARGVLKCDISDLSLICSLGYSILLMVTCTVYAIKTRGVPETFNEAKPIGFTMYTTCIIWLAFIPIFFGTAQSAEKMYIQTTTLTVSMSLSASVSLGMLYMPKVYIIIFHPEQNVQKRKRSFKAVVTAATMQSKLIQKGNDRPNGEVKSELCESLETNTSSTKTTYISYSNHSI

Row | SMILES | z-score
1 | O=C(Nc1c(F)cccc1F)c1ccc(-n2cncn2)nc1 | -0.106
2 | COc1ccc(C(=O)Nc2c(F)c(F)c(F)c(F)c2F)c(OC)c1 | -0.876
3 | COc1ccc(C)cc1S(=O)(=O)N(C)CC(N)=O | -0.447
4 | NC(=S)N/N=C/c1ccccc1OCCSc1ccc(Cl)cc1 | -0.0247
5 | CN(C)c1nc2c(c(=O)[nH]c(=O)n2C)n1Cc1ccc(F)cc1 | 0.644
6 | CCOc1ccc2nc(NC(=O)CN3CCC(n4nnc5cc(F)ccc54)CC3)sc2c1 | 1.71
7 | C/C(=N\OC(=O)c1ccc(Cl)cc1)c1nccs1 | -0.0963
8 | O=C(Nc1ccc(S(=O)(=O)Nc2nccs2)cc1)c1cc(-c2ccccc2)nc2ccccc12 | -0.29
9 | CCNS(=O)(=O)c1cc(S(C)(=O)=O)ccc1Cl | active: 8.32
10 | CCn1c(NCc2cccs2)nc2ccccc21 | -0.137
11 | O=C(Cn1c(=O)n(CCCCC(=O)NC2CCCC2)c(=O)c2ccccc21)NCCC1=CCCCC1 | -0.381
12 | O=C(O)CCC(=O)NNC(=O)CCC(=O)NCc1ccccc1 | 0.0834
13 | CC(CCc1ccccc1)NC(=O)COC(=O)C1=COCCO1 (stereo unspecified) | 0.664
14 | CN(CC(=O)Nc1ccccc1C(F)(F)F)C(=O)COc1ncnc2sccc12 | 1.2
15 | Cc1nn(-c2ccccc2)c(C)c1C(=O)OCC(=O)N1CC(=O)Nc2ccccc21 | -0.579
16 | C=CCn1c(=N)n(CC(O)COc2ccc(OC)cc2)c2ccccc21 (stereo unspecified) | -1.16
17 | C[C@H](N)c1nnc(SCC(=O)N(C)C)o1 | -0.0515
18 | CC(=O)C(C)Oc1ccc2c3c(c(=O)oc2c1)CCCC3 (stereo unspecified) | 0.0817
19 | CC(C(=O)N1CCCc2c1c(=O)oc1ccc(O)cc21)N1CCc2ccccc2C1 (stereo unspecified) | 0.434
20 | CCCCCn1c(CN2CCN(C)CC2)nc2c1c(=O)n(C)c(=O)n2C | -0.241
21 | CCc1c(C)c2ccc(OCC(=O)OC(C)C)c(C)c2oc1=O | 0.0796
22 | c1cncc(CNc2cccc(-c3nc4ccccc4[nH]3)c2)c1 | -0.311
23 | CCOC(=O)c1ccc(NC(=O)c2nn(CC)cc2Br)cc1 | 0.192

Row | SMILES | z-score
24 | CCN1CCCC1CNC(=O)C(=O)Nc1cccc(OC)c1 (stereo unspecified) | 2.04
25 | O=S(=O)(Nc1ccc(Cc2ccncc2)cc1)c1cccs1 | -0.0895
26 | COc1ccc(C(=O)CSc2nnc(C3CC3)n2N)cc1 | 0.0634
27 | Cc1ccc(N(CC(=O)NC2CCCCCC2)S(=O)(=O)c2c(C)nn(C)c2C)cc1 | -0.41
28 | C=C(CCC(=O)c1ccccc1)C(=O)c1ccccc1 | -0.396
29 | Cc1nc(C(=O)Nc2cccc(Cl)c2Cl)nn1-c1cc(OC(C)C)c(Cl)cc1Cl | -0.108
30 | Cc1ccc(N=Nc2c(N)n(-c3ccccc3)[nH]c2=O)cc1 | -0.102
31 | O=S(=O)(c1ccccc1)n1nc(-c2ccccc2)nc1NCc1ccco1 | -0.0427
32 | COc1ccc(/C(O)=C2/C(=O)C(=O)N(CCCC(=O)O)C2c2ccc(OC)c(OC)c2)cc1 (stereo unspecified) | 0.313
33 | CCOC(=O)c1sc(NC(=O)c2ccc(Cl)s2)cc1C | -0.211
34 | CN1CCN(/C=C2\SC(=S)NC2=O)CC1 | -0.54
35 | O=C(Nc1ccc2c(c1)nc1n2CCSC1)c1ccco1 | -0.685
36 | CC(C)C(=O)Nc1cccc(NC(=O)c2ccc(Cl)cc2Cl)c1 | -0.304
37 | O=C(OC(C(=O)NC1CCCCC1)c1ccccc1)c1ccco1 (stereo unspecified) | -0.0658
38 | CC(=O)Nc1ccc(SCC(=O)c2cc(C)n(CC(F)(F)F)c2C)cc1 | 0.0826
39 | CS(=O)(=O)c1ccc(Cl)c(NC(=O)C2CC(=O)N(Cc3ccccc3)C2)c1 (stereo unspecified) | 0.229
40 | CCOC(=O)c1ccc(NC(=O)c2ccc(C)c(S(=O)(=O)N3CCOCC3)c2)cc1 | -0.00222
41 | CC1CCN(C(=O)C2CCN(C(=O)c3cc4sccc4n3Cc3ccc(F)cc3)CC2)CC1 | -1.14
42 | CCCCCOc1ccc(C(=O)NCC(=O)NCC(=O)OCC)cc1 | -0.24
43 | CCn1c(CNC(=O)Cc2ccc(OC)cc2)nnc1SCC(=O)c1ccc(Br)cc1 | -0.124
44 | COCCn1c(C)cc2c(c1=O)C(c1ccco1)C(C#N)=C(N)O2 (stereo unspecified) | 0.0712
45 | O=C(CSc1nc(-c2ccc(F)cc2)cs1)NC(=O)NCc1ccco1 | -0.459
46 | CC1CC(C)CN(CCCNC(=O)c2ccc3c(c2)NC(=O)C(N2CCCCC2)S3)C1 (stereo unspecified) | 2.18

Row | SMILES | z-score
47 | O=C(c1cccn2c(=O)c3ccc(Cl)cc3nc12)N1CCN(Cc2ccc3c(c2)OCO3)CC1 | 0.29
48 | CNc1nc2c3ccccc3n(C(C)=O)c2s1 | 0.0868
49 | O=C(CCCO)c1ccc2c(c1)OCCO2 | 0.507
50 | O=C1SCC(c2ccc(Cl)cc2Cl)=NN1Cc1nnc(-c2ccccc2)o1 | 0.0379
51 | COc1ccc(S(=O)(=O)N2CCc3ccccc32)cc1C(=O)OCc1nnc(-c2ccccc2)o1 | -1.3
52 | Cc1ccc(-c2nnn(CCOc3cccc(Br)c3)n2)cc1 | -0.298
53 | CC(C)N(Cc1nc(-c2ccccc2)no1)C(=O)c1ccc(Cl)cc1 | -0.228
54 | CC(C)(C)C1CCC(C(=O)Nc2ccccc2)CC1 (stereo unspecified) | 0.307
55 | Cc1cc(C)c(C(=O)COc2cccnc2[N+](=O)[O-])cc1C | -0.277
56 | CCCC1(C(=O)O)NC(c2ccccc2O)C2C(=O)N(Cc3ccccc3)C(=O)C21 (stereo unspecified) | 0.746
57 | COC(=O)c1ccc(NC(=O)COC(=O)CSc2nc(C)cc(C)n2)cc1 | -0.177
58 | COc1ccc(/C(N)=N/OC(=O)c2ccc(C)c([N+](=O)[O-])c2)cc1 | -0.11
59 | O=C(CSc1ncnc2nc[nH]c12)N1CCN(c2ccc(Cl)cc2)CC1 | -0.192
60 | CCc1ccc(NC(=O)CSc2nnc(CNC(=O)c3c(F)cccc3Cl)o2)cc1 | -0.26
61 | CCOC(=O)c1c(N2C(=O)Nc3cc(Cl)c(Cl)cc3N2O)sc2c1CCCCC2 | -0.911
62 | Cc1cc2cc(CNC(=O)Nc3cccc(Cl)c3)ccc2n1C | -0.422
63 | C/C(=N\NC(=O)c1cc2c(s1)CCC(C)C2)c1ccncc1 (stereo unspecified) | -0.506
64 | COc1ccc(Cn2cnc3c(NS(C)(=O)=O)c(C)c(C)cc32)cc1 | 0.215
65 | COc1cc(C2N(c3cc(C)on3)C(=O)C3CCCN32)cc(OC)c1OC (stereo unspecified) | 0.437
66 | CCCc1nc(N)c(C#N)c(N)c1C#N | -0.0915
67 | COc1cc(C2C(C#N)=C(N)Oc3c2oc(CO)cc3=O)ccc1OC(C)C (stereo unspecified) | -0.026
68 | Cc1ccc(C(=O)N2CCN(c3ncccn3)CC2)o1 | 0.714
69 | Cc1cc([N+](=O)[O-])nn1CC(=O)NNC(=S)Nc1ccc(F)cc1 | -0.206

Row | SMILES | z-score
70 | O=S(=O)(NCc1ccc2c(c1)OCO2)c1ccc2oc3ccccc3c2c1 | -0.125
71 | CC(C)Oc1ccc(Cc2cnc(N)nc2N)cc1 | 1.03
72 | Cc1ccc(C(=O)n2nnc3ccccc32)cc1 | 0.00893
73 | Cc1ccc(OCc2nnc(SCc3ccc(C#N)cc3)n2-c2ccc(C)cc2)cc1 | 0.69
74 | CCC(C)[C@H](NC(=O)N1CCCC1)C(=O)O (stereo partly specified) | 0.0774
75 | Cc1cc(C)n(-c2ncnc3sc(C)c(C)c23)n1 | -0.0949
76 | CC(C)Cc1ccc(C(C)C(=O)Nc2nccs2)cc1 (stereo unspecified) | -0.384
77 | COc1ccc(CCNC(=O)CCCn2c(=O)[nH]c3cc(OC)c(OC)cc3c2=O)cc1OC | 0.13
78 | Cc1ccc(Cn2cnc3ccccc32)cc1 | 0.283
79 | Cc1ccsc1/C=N/N1CCN(c2ccccc2)CC1 | -0.161
80 | Cc1ccc(N(CC(=O)N2CCN(c3ccc(F)cc3)CC2)S(=O)(=O)c2c(C)nn(C)c2C)cc1 | -0.466
81 | CC(C)(C)c1ccc(OCC(=O)N/N=C/c2ccsc2)cc1 | 0.2
82 | CCCc1ccc(OCc2ccc(C(=O)N3CCN(c4ccccn4)CC3)o2)c(OC)c1 | -0.628
83 | CCOC(=O)C1=C(C)NC(=S)NC1/C=C/c1ccccc1 (stereo unspecified) | -0.0695
84 | CC(=O)Nc1ccc(OCC(O)Cn2nc(C)nc2C)cc1 (stereo unspecified) | -0.801
85 | CCOC(=O)c1c(C)nc2sc3c(=O)n(-c4ccc(OC)cc4)cnc3c2c1-c1ccc(OC)cc1 | -0.0166
86 | Cc1nc2c(-c3ccc(F)cc3)c(C)nn2c(C)c1CCC(=O)N1CCOCC1 | -0.13
87 | c1coc(CNCc2cccs2)c1 | 0.584
88 | N#Cc1ccc(NC(=O)c2nc(-c3ccccc3)n(-c3ccccc3)n2)cc1 | -0.634
89 | Nc1nc(Cl)cc(N2CCC(c3cc(-c4ccc(Cl)cc4Cl)n[nH]3)CC2)n1 | 0.128
90 | O=C(C1CC1)N1CCN=C1SCc1ccc(F)cc1 | 0.173
91 | COC(=O)CCC(=O)c1oc2ccccc2c1NC(=O)CCCN1C(=O)c2ccccc2C1=O | -0.0564
92 | CCCCc1cc(=O)oc2c(CN(CC)CC)c(O)c(Cl)cc12 | 0.00794

Row | SMILES | z-score
93 | CCCN(CCC)C(C(=O)Nc1cccc(OC)c1)c1ccccc1 (stereo unspecified) | 0.151
94 | CCCN1CNC(=S)N(CC2CCCO2)C1 (stereo unspecified) | 0.136
95 | Cc1cc(C(F)F)n2ncc(C(=O)NCc3ccccc3)c2n1 | -0.4
96 | COc1ccc(C(=O)NCCN2CCCC2)cc1OC | 0.216
97 | N#Cc1ccccc1/C=N/Nc1nc(-c2ccccc2)c2cc(Cl)ccc2n1 | -0.0971
98 | Nc1nc2ccc([N+](=O)[O-])c(N)c2s1 | -0.0644
99 | O=C(/C=C/c1ccccc1)NNC(=O)c1cccnc1 | -0.195
100 | CCc1cccc(CC)c1-n1c(SCn2nnc3ccccc3c2=O)nnc1-c1cccnc1 | -0.291
101 | CCOC(=O)c1c(NC(=O)c2ccccc2Br)sc2c1CCc1ccccc1-2 | -0.456
102 | O=C(COC(=O)Cc1cccc(C(F)(F)F)c1)Nc1ccccc1 | 0.426
103 | C/C(=N/Oc1nc(C)cc(C)n1)c1ccc(Cl)cc1Cl | -0.231
104 | CC(C)C(C)NC(=O)COc1ccc(-c2ccccc2)cc1 (stereo unspecified) | -0.309
105 | CCCCCCc1cc2cc(C(N)=O)c(=N)oc2cc1O | -1.44
106 | Cc1ccccc1C1C(C#N)=C2N=C(N)c3c(sc4c3CCCCC4)N2C2=C1C(=O)CC(C)(C)C2 (stereo unspecified) | -0.815
107 | CCOc1cc(C)c(Cl)cc1S(=O)(=O)NCc1ccco1 | 0.404
108 | O=C(Nc1cc(-c2nc3ccccc3s2)ccc1Cl)c1ccc2c(c1)OCO2 | 0.277
109 | CCOC(=O)CSc1nnc(CNC(=O)c2cc(OCC)c(OCC)c(OCC)c2)n1C | -0.467
110 | CCOC(=O)Cc1csc(NC(=O)c2ccc(Br)s2)n1 | 1.08
111 | Cc1ccc(OCCCN2C(=O)C(=O)c3cccc(C)c32)cc1 | -0.259
